Source: the GPR68 mutational scans of Howard et al. (2025)

B1: GPR68, Q15743 (parent)
chain: MGNITADNSSMSCTIDHTIHQTLAPVVYVTVLVVGFPANCLSLYFGYLQIKARNELGVYLCNLTVADLFYICSLPFWLQYVLQHDNWSHGDLSCQVCGILLYENIYISVGFLCCISVDRYLAVAHPFRFHQFRTLKAAVGVSVVIWAKELLTSIYFLMHEEVIEDENQHRVCFEHYPIQAWQRAINYYRFLVGFLFPICLLLASYQGILRAVRRSHGTQKSRKDQIQRLVLSTVVIFLACFLPYHVLLLVRSVWEASCDFAKGVFNAYHFSLLLTSFNCVADPVLYCFVSETTHRDLARLRGACLAFLTCSRTGRAREAYPLGAPEASGKSGAQGEEPELLTKLHPAFQTPNSPGSGGFPTGRLA

Assays:
[1] = variants of: B1; assay: cAMP reporter score (Enrich2 score, wild type = 0); higher = more signal; HEK293T, FACS bins
[2] = variants of: B1; assay: surface expression score (Enrich2 score, wild type = 0); higher = more signal; HEK293T, FACS bins

Row | Variant | cAMP reporter score ([1]; pH 5.5) | cAMP reporter score ([1]; pH 6) | cAMP reporter score ([1]; pH 6, modulator: ogerin) | cAMP reporter score ([1]; pH 6.5, modulator: ogerin) | surface expression score [2]
1 | A38E | -1.41 | -1.51 | -1.21 | -1.35 | -1.96
2 | T30_V31insGS | -0.482 | -0.092 | -0.575 | -0.912 | -2.31
3 | A24_P25insGSG | -1.24 | -1.1 | -1 | -1.03 | -2.87
4 | V27del | -1.32 | -1.48 | -1.11 | -0.939 | -0.959
5 | V31_L32insGSG | -0.561 | -0.881 | -1.04 | -1.35 | -3.27
6 | V27_Y28del | -1.37 | -0.833 | -1.77 | -0.823 | -2.36
7 | P25_V26del | -1.28 | -1.09 | -0.926 | -0.681 | -1.85
8 | T22_L23del | -1.09 | -0.203 | -1.11 | -0.586 | -2.8
9 | F36_P37del | -1.06 | -0.463 | -1.21 | -0.875 | -2.33
10 | V31del | -0.57 | -0.499 | -1.44 | -0.841 | -2.17
11 | T30_V31insGSG | -1.93 | -1.15 |  | -0.255 | 
12 | A24_P25insG | -1.03 | -1.37 | -1.55 | -0.647 | -2.31
13 | A38_C40del | -1.29 | -0.295 | -0.757 | -0.467 | -2.15
14 | V34_F36del | -0.97 | -0.677 | -1.44 | -0.484 | -2.64
15 | F36_A38del | -1.45 | -0.419 | -1.29 | -0.989 | -2.26
16 | N39Q | -1.18 | -0.2 | -1.94 | -0.769 | -0.82
17 | N39A | -1.11 | -0.533 | -1.18 | -0.918 | 0.886
18 | N39E | -2.21 | -2 | -0.94 | -0.791 | -2.14
19 | N39D | -2.14 |  | -1.62 | -0.775 | -2.43
20 | N39K | -1.4 | -0.69 | -1.5 | -0.33 | -1.9
21 | N39G | -1.24 | -0.634 | -1.18 | -0.826 | -0.088
22 | N39F | -0.735 | -0.611 | -1.28 | -1.06 | -2.28
23 | N39M | -0.892 | -0.036 | -0.963 | -1.12 | -2.07
24 | N39H | -0.956 | -0.324 | -1.15 | -0.427 | 0.094
25 | N39P | -0.934 | -1.75 | -2.45 | -0.648 | -2.96
26 | N39S | -0.635 | -0.562 | -0.512 | -0.604 | 0.355
27 | N39C | -0.585 | -1.29 | -0.645 | -1.36 | 0.18
28 | N39R | -1.24 | -0.605 | -1.43 | -0.602 | -2.54
29 | N39I | -1.12 | -0.438 | -1.16 | -0.38 | -2.13
30 | N39L | -1.18 | -0.612 | -0.993 | -1.15 | -1.87

The least precise scores are not listed. The source holds two more conditions with little spread; they are left out. Read del as a deletion of the residues named and ins as an insertion between two positions. For part of these data: How much ogerin was present is not stated here.
